The values that follow come from the supplement of paper PMC9446081.

In all, about 39,000 compounds went through this assay and about 220 (0.56%) showed activity. The list shows a part of the results.
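Further: static incubation at 37 °C against the wild-type strain, values averaged over two biological replicates.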

The subject of the test is Escherichia coli K-12 BW25113. In words: relative growth (OD600 normalised to plate interquartile mean) (fraction); higher = less growth inhibition, active = 0.2 or less. To be noted: 50 µM; LB; incubation time: overnight (16-24 h).
With `C[C@@H]1CN([C@@H](C)CO)C(=O)Cc2cc(NC(=O)C3CCCCC3)ccc2O[C@@H]1CN(C)Cc1ccc(-c2ccccc2)cc1`, the relative growth is inactive: 1.04.
The figure for `COCCNC(=O)C[C@@H]1CC[C@H]2[C@@H](COc3ccc(NS(=O)(=O)c4ccc(Cl)cc4)cc3C(=O)N2C)O1` is inactive: 1.03.
For `C[C@@H]1CN([C@@H](C)CO)C(=O)c2cc(NC(=O)c3ccccc3)ccc2O[C@@H](C)CCCCO[C@H]1CN(C)C(=O)Nc1ccc2c(c1)OCO2` the value was inactive: 1.02; for `C[C@@H]1CCCCO[C@@H](CN(C)C(=O)C2CCCCC2)[C@H](C)CN([C@H](C)CO)C(=O)c2cc(NC(=O)Nc3ccccc3)ccc2O1`, inactive: 1.02.
For `COc1cccc(S(=O)(=O)N(C)C[C@H]2Oc3ncc(C#CCN(C)C)cc3C(=O)N([C@H](C)CO)C[C@@H]2C)c1` the value was inactive: 1.01; for `C[C@@H]1CN([C@H](C)CO)C(=O)c2cc(NC(=O)Nc3cccc4ccccc34)ccc2O[C@@H](C)CCCCO[C@@H]1CN(C)Cc1ccc(C(=O)O)cc1`, inactive: 1.01; for `C[C@@H]1CCCCO[C@@H](CN(C)S(C)(=O)=O)[C@@H](C)CN([C@H](C)CO)C(=O)c2cc(NS(=O)(=O)c3ccc(F)cc3)ccc2O1`, inactive: 1.01.
Consider `C[C@H]1CN([C@@H](C)CO)C(=O)Cc2cc(NC(=O)CCC(F)(F)F)ccc2O[C@@H]1CN(C)C(=O)Nc1cccc2ccccc12`, for which the relative growth is inactive: 0.989.
With `C[C@@H]1CN([C@H](C)CO)C(=O)c2cc(NS(C)(=O)=O)ccc2O[C@@H](C)CCCCO[C@@H]1CN(C)S(=O)(=O)c1cccs1`, the relative growth is inactive: 1.01.
`C[C@H]1CCCCO[C@H](CN(C)C(=O)NC2CCCCC2)[C@@H](C)CN([C@@H](C)CO)C(=O)c2cc(NC(=O)Nc3ccc(F)cc3)ccc2O1`: the relative growth is inactive: 1.04.
For `Cc1ccc(S(=O)(=O)N(C)C[C@H]2OCCCC[C@H](C)Oc3ccc(NS(C)(=O)=O)cc3C(=O)N([C@@H](C)CO)C[C@H]2C)cc1` the value was inactive: 1; for `C[C@H]1CN([C@@H](C)CO)C(=O)c2c(c3ccccc3n2C)-c2ccccc2CO[C@@H]1CN(C)S(=O)(=O)c1ccc(Cl)cc1`, inactive: 1.03.
The figure for `CC(C)NC(=O)N[C@H]1C=C[C@@H](CC(=O)NCCCN(C)C)O[C@@H]1CO` is inactive: 0.983.
For `CN(C)C1C(O)=C(C(N)=O)C(=O)C2(O)C(O)=C3C(=O)c4c(O)cccc4C(C)(O)C3CC12.Cl` (stereo not given) the value was active: 0.056; for `C[C@H](CO)N1C[C@H](C)[C@H](CN(C)C)OCCCC[C@H](C)Oc2ccc(NC(=O)Nc3cccc4ccccc34)cc2C1=O`, inactive: 0.988; for `CC(C)=CCC[C@@H](C)CCO`, inactive: 0.992.
For `N=c1c(C(N)=S)cnc2ccccn12`, the relative growth is inactive: 1.01.
The figure for `Cc1noc(C)c1S(=O)(=O)Nc1cccc2c1O[C@@H](CN(C)S(=O)(=O)c1ccc(Cl)cc1)[C@@H](C)CN([C@@H](C)CO)C2=O` is inactive: 1.02; for `Cc1ccc(S(=O)(=O)Nc2ccc3c(c2)CC(=O)N([C@H](C)CO)C[C@@H](C)[C@H](CN(C)S(=O)(=O)c2ccccc2)O3)cc1` it is inactive: 0.999.
The figure for `NC1(CC(=O)O)CCN(Cc2ccccc2)CC1` is inactive: 0.999.
Take `C[C@H]1CN([C@@H](C)CO)C(=O)c2c(c3ccccc3n2C)-c2ccccc2CO[C@H]1CN(C)Cc1ccc(F)cc1`: the relative growth was inactive: 0.998.
For `C[C@@H]1CN([C@H](C)CO)C(=O)c2cc(NC(=O)Cc3ccccc3)ccc2O[C@@H](C)CCCCO[C@@H]1CN(C)Cc1ccccc1` the value was inactive: 0.988; for `COc1ccc(NC(=O)Nc2ccc3c(c2)C(=O)N([C@H](C)CO)C[C@@H](C)[C@@H](CN(C)C(=O)Nc2ccc(OC)cc2)OCCCC[C@@H](C)O3)cc1`, inactive: 1.02.
For `Cc1noc(C)c1S(=O)(=O)N(C)C[C@@H]1Oc2ccc(NS(=O)(=O)c3ccc(F)cc3)cc2CC(=O)N([C@H](C)CO)C[C@H]1C` the value was inactive: 1.02.
The figure for `C[C@@H]1CN([C@H](C)CO)C(=O)c2cccc(NC(=O)Nc3ccccc3)c2O[C@H]1CN(C)Cc1ccc(-c2ccccc2)cc1` is inactive: 0.977.
`C[C@@H]1CN([C@@H](C)CO)C(=O)c2cccc(NS(=O)(=O)c3ccccc3)c2O[C@@H]1CN(C)CC1CC1`: the relative growth was inactive: 1.02.
The figure for `C[C@@H]1CN([C@@H](C)CO)C(=O)c2c(c3ccccc3n2C)-c2ccccc2CO[C@H]1CN(C)S(C)(=O)=O` is inactive: 1.01; for `CN1CC(=O)N=C1NC(=O)[C@H]1CCCN(S(=O)(=O)c2ccc3c(c2)oc(=O)n3C)C1` it is inactive: 1; for `Cc1c2oc3c(C)ccc(C(=O)N[C@@H]4C(=O)N[C@H](C(C)C)C(=O)N5CCC[C@H]5C(=O)N(C)CC(=O)N(C)[C@@H](C(C)C)C(=O)O[C@@H]4C)c3nc-2c(C(=O)N[C@@H]2C(=O)N[C@H](C(C)C)C(=O)N3CCC[C@H]3C(=O)N(C)CC(=O)N(C)[C@@H](C(C)C)C(=O)O[C@@H]2C)c(N)c1=O` it is inactive: 1.01.
The figure for `C[C@@H]1CCCCO[C@H](CN(C)CC2CCCCC2)[C@H](C)CN([C@@H](C)CO)C(=O)c2cc(NS(=O)(=O)c3ccccc3)ccc2O1` is inactive: 0.992; for `Cc1ccc(S(=O)(=O)N(C)C[C@H]2OCCCC[C@H](C)Oc3ccc(NC(=O)Nc4ccc5c(c4)OCO5)cc3C(=O)N([C@@H](C)CO)C[C@@H]2C)cc1` it is inactive: 1.03.
Take `C[C@@H]1CN([C@@H](C)CO)C(=O)Cc2cc(NC(=O)C3CC3)ccc2O[C@@H]1CN(C)Cc1ccc2c(c1)OCO2`: the relative growth is inactive: 0.999.
On to `C[C@@H]1CN([C@@H](C)CO)C(=O)c2cc(NC(=O)Nc3ccc(F)cc3)ccc2O[C@@H]1CN(C)C(=O)Nc1ccc(C(F)(F)F)cc1`, for which the relative growth was inactive: 1.02.
For `C[C@@H]1CCCCO[C@@H](CN(C)C(=O)c2ccccc2)[C@@H](C)CN([C@@H](C)CO)C(=O)c2cc(NC(=O)CCC(F)(F)F)ccc2O1` the value was inactive: 1.02.
Turning to `CC=Cc1ccc2n(c1=O)C[C@H]1[C@H](CO)[C@@H](C(=O)NC3CCC3)N(S(C)(=O)=O)[C@@H]21`, the relative growth is inactive: 1.
